# Experimental data taken from ChEMBL document CHEMBL4888484, “Replenishing the malaria drug discovery pipeline: Screening and hit evaluation of the MMV Hit Generation Library 1 (HGL1) against asexual blood stage Plasmodium falciparum ,using a nano luciferase reporter read-out” (2022).
# Hit rate of the full screen: of about 150,000 compounds, about 540 (0.36%) showed an effect of 50% or more. The list shows a part of the results.
# System: Plasmodium falciparum
# Test: Primary screen in NF54 nanoGlo assay, in single point, at 2uM, 72h; a lower Z score goes with more inhibition
# Assay type: functional, Erythrocyte
# Conditions: timepoint 72 hour
Compound,% Inhibition,Z score,% Inhibition (2 µM)
Cc1ccsc1-c1nccn1-c1ccc2c(c1)NC(=O)CO2,-14%,1.93,
Cc1ccc(C(=O)N[C@@H](C)c2cnccn2)o1,-25%,2.55,
Cc1cc(-c2nc(C(=O)N3CC[C@@H]4CCC[C@@H]43)co2)ccn1,15%,-1.96,
Cc1c(CNCc2cccc(F)c2)c(C(=O)O)c(C)n1-c1ccccc1,-7%,1.25,
COCCCN1CC(=O)N[C@@H]2CN(C(=O)c3ccnc(OC)c3)CC[C@@H]2OCc2cccc(c2)Oc2ccc(cc2OC)CCC1=O,10%,-1.42,
Cc1ccc(/C(=N/c2sc(-c3ccccc3)nc2-c2ccccc2)N2CCN(c3ccccc3)CC2)cc1,-10%,1.32,
CCCN(Cc1cc(-c2ccc(OC)cc2OC)on1)C(=O)CC,-10%,1.49,
Cc1nc(N2CCCC2)nc(C)c1NC(=O)c1c(F)cccc1F,-2%,0.3,
c1ccc2c(c1)CC(NC1CCN(c3ccc(-n4cncn4)cc3)CC1)C2,14%,-1.88,
O=C(Cc1ccccc1)n1cnc2ccccc21,12%,-1.4,
COCC(=O)N1CC[C@@]2(O)CCN(C/C=C/c3ccc(OC)cc3)C[C@H]2C1,-6%,1.23,
Cn1nc(-c2ccccc2F)c2cc(C(=O)N3CCc4ccccc4C3)sc21,-3%,0.45,
Cc1cc2c(cc1C(=O)N(C)CCCc1nccn1C)OCCO2,-13%,1.63,
O=c1c2ccccc2nc(-c2cccc(OCc3ccccc3)c2)n1C1CCCCC1,-3%,0.48,
CCC(CC)(CNC(=O)NCCC(=O)Nc1ccc(Br)cc1)N(C)C,-16%,1.91,
O=C(Nc1ncccc1O)c1cc(O)ncn1,3%,-0.49,
Cc1nn(C)c(=O)c2cc(S(=O)(=O)NCc3ccco3)cn12,6%,-0.77,
CC1CCC2(C)c3[nH]c4ccccc4c3CCCN2C1=O (stereo unspecified),,,-3%
OC(C1CCN(C2CCCCc3ccccc32)CC1)C(F)(F)F (stereo unspecified),0%,0.03,
O=S(=O)(c1ccoc1)N1CC2(CCCC2)C1,-9%,0.78,
N#Cc1nc(C2CC2c2ccccc2)oc1N1CCCCC1 (stereo unspecified),-13%,1.73,
CCOC(=O)c1cnn(-c2ccnc3cc(Cl)ccc23)c1CN1CCC(C(=O)OCC)CC1,-14%,1.96,

Compound,% Inhibition,Z score,% Inhibition (2 µM)
CCc1cccc(C)c1NC(=O)CN(C)S(=O)(=O)c1cc2c(cc1C)NC(=O)[C@H](C)O2,-6%,0.52,
CCOc1cc(C(=O)NCc2nc(COc3ccccc3)n[nH]2)n[nH]1,-9%,1.02,
CCc1nc(C(=O)N2CCOCC[C@@H]2C)nn1-c1ccccc1,-3%,0.33,
O=C(Cn1cnc2nc(N3CCCC3)sc2c1=O)NCc1ccccc1Cl,-9%,1.42,
Cc1nc(-c2ccccc2NC(=O)Cn2cccn2)cs1,-10%,1.84,
O=C(NC[C@H]1CCCO1)C1=COCCO1,-12%,1.27,
Cc1ccccc1C(=O)NC(C(C)C)C(C)C,-9%,1.62,
O=S1(=O)N=CN(c2ccc(Oc3ccccc3)cc2)c2ncccc21,2%,-0.29,
COC(=O)C(C)(C)CNC(=O)Nc1ccc2c(c1)N(C)CCO2,-9%,1.13,
Fc1cc(Cl)c(NCc2nnc(C3CCC3)o2)c(Cl)c1,-2%,0.22,
CCOc1ncccc1C(=O)Nc1nc2c(s1)C[C@@H](NC(=O)OC(C)(C)C)CC2,-12%,1.14,
CN(CC(=O)NCc1ccc2c(c1)OCO2)Cc1cnn(C)c1,-8%,1.23,
CC(=O)N[C@@H]1C[C@H](CC(C)C)O[C@H](c2cccc3c(C)c(C)[nH]c23)C1,-1%,0.11,
CCc1ccc(C(=O)N2CCC3(CC2)[C@H](O)C[C@@H]3OC)[nH]1,-9%,1.31,
O=C(c1ccc2nccnc2c1)N1CCC(N2C(=O)COC2=O)CC1,-26%,4.94,
Cc1ccc(-c2cc(C(=O)NCc3ccncc3)no2)cc1F,-14%,2.6,
CC(C)CC(=O)N1CCc2nc(N)sc2C1,8%,-1.08,
Cn1cc(C(=O)N2CCCc3cc(Cl)cc(Br)c32)nn1,7%,-0.99,
O=C(Cn1nnc2ccccc21)NC[C@H]1CCOC1,5%,-0.88,
O=C(NCc1nccn1CCCc1ccccc1)c1ccc(O)nc1,-11%,1.21,
Cc1noc(C2(c3ccc(Cl)cc3)CCOCC2)n1,-8%,1.56,
O=C(c1ccnc(C2CC2)n1)N(Cc1ccccc1)C1CCNCC1,14%,-1.8,

Compound,% Inhibition,Z score,% Inhibition (2 µM)
Cc1nonc1CC(=O)N1CC[C@H]1c1ccc(F)cc1,-8%,1.31,
COc1ccc(NS(=O)(=O)c2ccc(-c3[nH]nc(C)c3C)o2)cc1,-4%,0.62,
CO[C@H]1CC[C@@]2(OC)CCN(C(=O)Cc3c[nH]c4ccccc34)[C@H]2C1,2%,-0.49,
CCc1ccccc1N1C(=O)N[C@H](c2ccc(Cl)cc2Cl)C1=O,-8%,1.24,
O=C(Nc1cccnc1)N1CC2(CC2)c2ccccc21,-10%,1.21,
O=C(Nc1ccc(-n2cccc(C(=O)NCCCN3CCOCC3)c2=O)cc1)c1ccc(F)cc1,-8%,1.11,
CCN(CC)c1ccc(C(=O)N2CCC(O)(c3nnn[nH]3)CC2)cc1,-17%,1.94,
C=CCNc1nc(CC2CC2)nc2c1CCNCC2,-1%,0.17,
CC(O)CC1COCCN1C(=O)NC(c1ccccc1)C1CC1C (stereo unspecified),-2%,0.2,
CC(C(=O)O)N(C)CC(O)c1ccccc1Br (stereo unspecified),-3%,0.61,
O=C(c1noc2c1CCCC2)N1CCn2c(cc3cc(Cl)ccc32)C1,0%,0.07,
Cc1cccc2[nH]c(COCC(=O)NC[C@H]3CCCN(C)C3)nc12,14%,-1.8,
CCOc1ccc(C(=O)N(CC(C)C)CC(C)C)cc1OCC,-12%,1.43,
C[C@@](CO)(NCCC(=O)N1CCc2ccccc2C1)c1ccccc1,2%,-0.27,
CS(=O)(=O)c1ccc(OC[C@@]2(CNC(=O)C3CCCC3)C[C@@H](O)[C@@H](O)C2)cc1,8%,-1.22,
COCc1nc(NC(=O)COc2cccc3c2ccn3C(C)C)n[nH]1,-7%,0.93,
Cc1ncc(C(=O)NCc2nonc2C)cn1,-11%,1.05,
O=C(O)c1cc(O)n2nc3cccc(F)c3c2n1,27%,-3.46,
CC(C)c1ccc(N2CCn3nc(CNC(=O)C4CCCC4)cc3C2)nn1,-2%,0.21,
CC(C)Cc1nc(C#N)c(-n2cccn2)o1,-8%,0.89,
O=C(c1csc(Nc2ncccn2)n1)N1CCc2ccccc2C1,-22%,4.19,
O=C(N[C@H]1CC[C@H](Oc2ncc(F)cn2)CC1)[C@@H]1COc2ccccc2O1,-7%,1.18,

Compound,% Inhibition,Z score,% Inhibition (2 µM)
CCC(CC)N(Cc1ccc2c(c1)OCO2)C(=O)Cc1cccnc1,23%,-2.95,
N#Cc1c(-c2cccc(Cn3cccn3)c2)cc(C2CCC2)nc1N,11%,-1.51,
O=C(CCCN1C(=O)CNC1=O)NCCCOc1ccc(F)cc1,0%,0,
Cc1cc(NC(=O)c2cc(-c3ccccn3)nc3c(Cl)cccc23)no1,-1%,0.16,
CNC(=NCCOc1ccc(Br)cc1)NC,-1%,0.19,
CC(C)c1ccc(N2C(=O)CN(C3CCCCCC3)C3CS(=O)(=O)CC32)cc1 (stereo unspecified),5%,-0.67,
Cc1ncc(C(=O)N2CCN(c3ccc(Cl)c(Cl)c3)CC2)c(C)n1,3%,-0.67,
CC1CN(c2ccnc(C#N)n2)CC(C2CC2)O1 (stereo unspecified),-9%,0.76,
Cc1nc(CC(=O)N[C@H]2CCOC[C@@H]2Oc2ccc(C#N)cc2)cs1,-7%,0.8,
COc1ccc(C)cc1NC(=O)c1ccc(N2CCOCC2)nn1,-6%,0.83,
O=C(O)[C@H]1CC(=O)N(CCCCc2ccccn2)C1,-12%,2.17,
CCC(=O)N1CCC([C@H](NC(=O)c2ccccc2)C(=O)N2CCCC2)CC1,-14%,2,
Cc1nc(C)c(CC(=O)N2CC[C@H]2c2cccs2)s1,-2%,0.2,
O=C(Nc1nc(C(F)(F)F)c[nH]1)C1CCCC1,2%,-0.47,
Cn1nc(-c2ccc(Cl)cc2)c2cc(C(=O)N3CCN(C4CCCCC4)CC3)sc21,-6%,0.78,
COc1c(C)cnc(CN2CCC(N(C)C(=O)[C@H]3CC(=O)N(C)C3)CC2)c1C,0%,0.04,
NC(=O)C1CCN(C(=O)c2nccnc2-c2nc3ccccc3s2)CC1,1%,-0.08,
Cc1cc(N)n(CC(=O)N[C@@H](C)c2ccc3[nH]ccc3c2)n1,-16%,1.87,
O=C(NCCc1nc(-c2ccccc2)no1)C1CCC1,-4%,0.57,
C[C@@H](C1CC1)n1nccc1NCc1ccc(F)cc1,28%,-3.16,
